Results as given in the supplement of paper PMC7826260.
Some of the results follow. Each Rep nickase domain was tested in vitro on the same pool of single strands for 1 h at 37 °C with 3 µM enzyme; only the middle of the 90-letter strands is printed. Numbers give uncut DNA relative to the enzyme-free pool, as log2; uncut sequences lie near 0, cut ones below; no hit call is given. Shares of all reads are compared, so uncut sequences can rise above 0 when many others are cut.

system: T1, Rep nickase domain of tomato golden mosaic virus; assay: uncleaved DNA left, log2 of reads against the no-enzyme library (log2 ratio); higher = less cleavage (more negative = more Rep cleavage of the k-mer); sequences stand for … in CTCGTCCG…ACCGGAGA
T1 sequence (residues 1-124, tag not shown): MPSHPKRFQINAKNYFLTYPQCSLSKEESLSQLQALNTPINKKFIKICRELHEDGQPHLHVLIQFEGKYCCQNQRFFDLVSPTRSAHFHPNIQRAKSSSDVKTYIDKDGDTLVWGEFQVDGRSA
Experimental: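 A pool of 90-nt single-stranded DNAs with seven random bases just before the constant AC of the nick site (name = the seven bases) was cut by 3 µM recombinant His6-SUMO-tagged Rep nickase domain (300 nM DNA, 50 mM HEPES pH 8.0, 50 mM NaCl, 1 mM MnCl2, 1 h, 37 °C, three replicates). Uncut DNA was amplified and sequenced.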

| Sequence | uncleaved DNA left (log2) |
| --- | --- |
| AGAACAC | -0.0697 |
| GGCCTAT | 0.0221 |
| CTCGCCC | -0.0404 |
| CAGCAGA | -0.00491 |
| TCCACAG | -0.0307 |
| TGAAGTT | -0.000458 |
| GCATTTC | 0.149 |
| TAAAGCG | -0.0279 |
| CAATGTT | -4.28 |
| TCACCTG | -0.155 |
| CGACAAA | 0.0329 |
| GTCTAGC | 0.0312 |
| AAGCGCA | 0.11 |
| TTGGCAC | -0.127 |
| GGTCCAC | 0.244 |
| TGTATCA | 0.0779 |
| CTTTTAG | -0.0739 |
| TATTCTC | -0.173 |
| TAGTCGT | -0.142 |
| GTATACC | 0.0302 |

| Sequence | uncleaved DNA left (log2) |
| --- | --- |
| GTTTACT | 0.0817 |
| CCCCGGC | 0.15 |
| TATTAAT | -1.05 |
| CAGTATT | -3.53 |
| TATTCAA | -0.0371 |
| TATGGGA | 0.0629 |
| GCTCACT | -0.0382 |
| TTCCGAC | -0.0564 |
| ATTTTGT | -0.127 |
| TGTGTTA | -0.0796 |
| GGAAGGG | 0.0933 |
| TTCATTT | -0.111 |
| ATTCTAA | 0.0246 |
| CTAGTGC | -0.0127 |
| TGTCTCA | 0.00435 |
| CAAGATA | -0.0867 |
| CCATAAC | -0.00631 |
| ACACTAT | 0.11 |
| ACCATTG | -0.0205 |
| CATGGGA | -0.221 |
